{"source": "the supplement of paper PMC8821664", "note": "Structures can show the parent of a compound that is named as a salt. The list shows a part of the results. Most values come without repeats; read them as rough.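 Also: monoclonal Beas-2B line stably carrying CMV promoter-driven AQP5-HiBiT, 5,000 cells per well in 384-well plates, lytic HiBiT plus LgBiT NanoLuc luminescence, FDA-approved drug library screen.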"}
{"tested_on": "Beas-2B AQP5-HiBiT reporter cells", "assay": "AQP5-HiBiT luminescence relative to vehicle (ratio to vehicle); higher = higher AQP5-HiBiT protein abundance", "settings": "10 µM; 18 h"}
{"smiles": "CC1=Nc2ccc(Cl)cc2S(=O)(=O)N1", "note": "[Diazoxide]", "AQP5-HiBiT luminescence": 0.846}
{"smiles": "CN/C(=N\\CCSCc1nc[nH]c1C)NC#N", "note": "[Cimetidine]", "AQP5-HiBiT luminescence": 0.78}
{"smiles": "CCCSc1nc(N[C@@H]2C[C@H]2c2ccc(F)c(F)c2)c2nnn([C@@H]3C[C@H](OCCO)[C@@H](O)[C@H]3O)c2n1", "note": "[Ticagrelor]", "AQP5-HiBiT luminescence": 0.99}
{"smiles": "Cc1cc(-c2ccc(/N=N/c3ccc4c(S(=O)(=O)O)cc(S(=O)(=O)O)c(N)c4c3O)c(C)c2)ccc1/N=N/c1ccc2c(S(=O)(=O)O)cc(S(=O)(=O)O)c(N)c2c1O", "note": "[Evans blue]", "AQP5-HiBiT luminescence": 1.03}
{"smiles": "CC(=O)OC(C)C[N+](C)(C)C", "note": "(configuration not stated) [Methacholine Chloride]", "AQP5-HiBiT luminescence": 1.13}
{"smiles": "O=C1C(CC[S+]([O-])c2ccccc2)C(=O)N(c2ccccc2)N1c1ccccc1", "note": "(configuration not stated) [Sulfinpyrazone]", "AQP5-HiBiT luminescence": 0.743}
{"smiles": "CC(=O)O[C@@]12CO[C@@H]1C[C@H](O)[C@@]1(C)C(=O)[C@H](O)C3=C(C)[C@@H](OC(=O)[C@H](O)[C@@H](NC(=O)OC(C)(C)C)c4ccccc4)C[C@@](O)([C@@H](OC(=O)c4ccccc4)[C@H]21)C3(C)C", "note": "[Docetaxel]", "AQP5-HiBiT luminescence": 1.77}
{"smiles": "C#C[C@]1(O)CC[C@H]2[C@@H]3CCC4=CC(=O)CC[C@@H]4[C@H]3C(=C)C[C@@]21CC", "note": "[Etonogestrel]", "AQP5-HiBiT luminescence": 0.678}
{"smiles": "CN(C)[C@@H]1C(O)=C(C(N)=O)C(=O)[C@@]2(O)C(O)=C3C(=O)c4c(O)cccc4[C@@](C)(O)[C@H]3C[C@@H]12", "note": "[Tetracycline]", "AQP5-HiBiT luminescence": 1.22}
{"smiles": "NCCCCCC(=O)O", "note": "[6-Aminocaproic acid]", "AQP5-HiBiT luminescence": 0.86}
{"smiles": "CC(=O)[C@H]1CC[C@H]2[C@@H]3CCC4=CC(=O)CC[C@]4(C)[C@H]3CC[C@]12C", "note": "[Progesterone]", "AQP5-HiBiT luminescence": 0.777}
{"smiles": "CN[C@H]1C(=O)N[C@@H]2Cc3ccc(cc3)Oc3cc4cc(c3O[C@@H]3O[C@H](C(=O)O)[C@@H](O)[C@H](O)[C@H]3NC(=O)CCCCCCCCC(C)C)Oc3ccc(cc3Cl)[C@@H](O)[C@@H]3NC(=O)[C@H](NC(=O)[C@@H]4NC(=O)[C@@H](NC2=O)c2cc(cc(O)c2Cl)Oc2cc1ccc2O)c1ccc(O)c(c1)-c1c(O[C@H]2O[C@H](CO)[C@@H](O)[C@H](O)[C@@H]2O)cc(O)cc1[C@@H](C(=O)NCCCN(C)C)NC3=O", "note": "[Dalbavancin hydrochloride]", "AQP5-HiBiT luminescence": 0.916}
{"smiles": "CCCCc1nc(Cl)c(CO)n1Cc1ccc(-c2ccccc2-c2nnn[nH]2)cc1", "note": "[Losartan]", "AQP5-HiBiT luminescence": 0.707}
{"smiles": "N[C@@H](CCC(=O)N[C@@H](CS)C(=O)NCC(=O)O)C(=O)O", "note": "[Glutathione]", "AQP5-HiBiT luminescence": 0.9}
{"smiles": "COc1cc(C)c(/C=C/C(C)=C/C=C/C(C)=C/C(=O)O)c(C)c1C", "note": "[Acitretin]", "AQP5-HiBiT luminescence": 0.916}
{"smiles": "NS(=O)(=O)c1cc2c(cc1Cl)NC(C(Cl)Cl)NS2(=O)=O", "note": "(configuration not stated) [Trichlormethiazide]", "AQP5-HiBiT luminescence": 0.796}
{"smiles": "CO/N=C(\\C(=O)N[C@@H]1C(=O)N2C(C(=O)O)=C(COC(N)=O)CS[C@H]12)c1ccco1", "note": "[Cefuroxime sodium]", "AQP5-HiBiT luminescence": 0.781}
{"smiles": "CN(C)CCC(c1ccc(Br)cc1)c1ccccn1", "note": "(configuration not stated) [Brompheniramine hydrogen maleate]", "AQP5-HiBiT luminescence": 1.41}
{"smiles": "O=C(NC1CCN(CCCCC2(C(=O)NCC(F)(F)F)c3ccccc3-c3ccccc32)CC1)c1ccccc1-c1ccc(C(F)(F)F)cc1", "note": "[Lomitapide Mesylate]", "AQP5-HiBiT luminescence": 1.15}
{"smiles": "Cc1cc(C)cc(OCC2CNC(=O)O2)c1", "note": "(configuration not stated) [Metaxalone]", "AQP5-HiBiT luminescence": 0.977}
{"smiles": "O=C(c1ccccc1)c1ccc2n1CCC2C(=O)O", "note": "(configuration not stated) [Toradol]", "AQP5-HiBiT luminescence": 0.994}
{"smiles": "C[C@]12CCC(=O)C=C1[C@@H]1C[C@@H]1[C@H]1[C@@H]3[C@@H]4C[C@@H]4[C@@]4(CCC(=O)O4)[C@@]3(C)CC[C@@H]12", "note": "[Drospirenone]", "AQP5-HiBiT luminescence": 0.436}
{"smiles": "O=C1[C@@H]2[C@H]3CC[C@H](C3)[C@@H]2C(=O)N1C[C@@H]1CCCC[C@H]1CN1CCN(c2nsc3ccccc23)CC1", "note": "[Lurasidone hydrochloride]", "AQP5-HiBiT luminescence": 1}
{"smiles": "Cc1cn([C@H]2C=C[C@@H](CO)O2)c(=O)[nH]c1=O", "note": "[Stavudine]", "AQP5-HiBiT luminescence": 0.973}
{"smiles": "CC(=O)O[C@H]1Cc2ccccc2N(C(N)=O)c2ccccc21", "note": "[Eslicarbazepine Acetate]", "AQP5-HiBiT luminescence": 0.838}
{"smiles": "NS(=O)(=O)c1cc(C2(O)NC(=O)c3ccccc32)ccc1Cl", "note": "(configuration not stated) [Chlortalidone]", "AQP5-HiBiT luminescence": 1.23}
{"smiles": "Nc1cccc2c1C(=O)N(C1CCC(=O)NC1=O)C2=O", "note": "(configuration not stated) [Pomalidomide]", "AQP5-HiBiT luminescence": 0.789}
